Test results taken from the supplement of paper PMC7826260.
This is one part of the list. Viral Rep nickase domains cut single-stranded DNA in vitro at 3 µM enzyme and 37 °C for 1 h; the strands have 90 letters, of which the middle is given. Uncut reads are compared with the no-enzyme pool on a log2 scale; the lower, the more was cut; hits are not called. Shares of all reads are compared; values above 0 arise when much of the pool is cut.

Legend:
Assay in all cases: uncleaved DNA left, log2 of reads against the no-enzyme library (log2 ratio); higher = less cleavage (more negative = more Rep cleavage of the k-mer); sequences stand for … in CTCGTCCG…ACCGGAGA
[1] = test system: T1, Rep nickase domain of Muscovy duck circovirus
T1 sequence (Rep 1-111, printed without the tag): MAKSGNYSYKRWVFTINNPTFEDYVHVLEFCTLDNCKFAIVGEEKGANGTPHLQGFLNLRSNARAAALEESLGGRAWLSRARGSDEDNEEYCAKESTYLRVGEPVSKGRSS
Description: (§1)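 A pool of 90-nt single-stranded DNAs with seven random bases just before the constant AC of the nick site (name = the seven bases) was cut by 3 µM recombinant His6-SUMO-tagged Rep nickase domain (300 nM DNA, 50 mM HEPES pH 8.0, 50 mM NaCl, 1 mM MnCl2, 1 h, 37 °C, three replicates). Uncut DNA was amplified and sequenced.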

[2] = test system: T2, Rep nickase domain of banana bunchy top virus
T2 sequence (Rep 1-94, printed without the tag): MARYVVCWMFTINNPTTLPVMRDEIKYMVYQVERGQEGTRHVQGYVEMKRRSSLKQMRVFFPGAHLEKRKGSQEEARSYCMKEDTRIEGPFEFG
Description: as §1

[3] = test system: T3, Rep nickase domain of cabbage leaf curl virus
T3 sequence (Rep 1-116, printed without the tag): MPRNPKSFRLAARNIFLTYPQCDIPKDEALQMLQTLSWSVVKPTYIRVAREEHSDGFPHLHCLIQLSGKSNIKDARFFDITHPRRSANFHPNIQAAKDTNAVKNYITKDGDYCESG
Description: as §1

[4] = test system: T4, Rep nickase domain of chickpea chlorotic dwarf virus
T4 sequence (Rep 1-124, printed without the tag): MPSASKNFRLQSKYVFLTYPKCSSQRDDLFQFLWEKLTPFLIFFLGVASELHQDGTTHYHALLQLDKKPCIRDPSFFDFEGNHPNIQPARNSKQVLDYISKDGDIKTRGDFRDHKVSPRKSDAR
Description: as §1

[5] = test system: T5, Rep nickase domain of faba bean necrotic yellows virus
T5 sequence (Rep 1-98, printed without the tag): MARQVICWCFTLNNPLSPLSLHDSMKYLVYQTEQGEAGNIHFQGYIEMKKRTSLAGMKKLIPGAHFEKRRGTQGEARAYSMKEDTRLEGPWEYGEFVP
Description: as §1

[6] = test system: T6, Rep nickase domain of maize striate mosaic virus
T6 sequence (Rep 1-117, printed without the tag): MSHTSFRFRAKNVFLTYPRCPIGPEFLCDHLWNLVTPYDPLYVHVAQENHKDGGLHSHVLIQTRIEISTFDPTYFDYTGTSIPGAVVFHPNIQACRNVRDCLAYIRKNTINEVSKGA
Description: as §1

[7] = test system: T7, Rep nickase domain of porcine circovirus 2
T7 sequence (Rep 2-116, printed without the tag): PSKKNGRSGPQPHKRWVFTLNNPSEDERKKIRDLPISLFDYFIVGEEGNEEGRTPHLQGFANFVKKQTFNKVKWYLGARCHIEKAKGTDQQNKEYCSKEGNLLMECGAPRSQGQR
Description: as §1

[8] = test system: T8, Rep nickase domain of tomato golden mosaic virus
T8 sequence (Rep 1-124, printed without the tag): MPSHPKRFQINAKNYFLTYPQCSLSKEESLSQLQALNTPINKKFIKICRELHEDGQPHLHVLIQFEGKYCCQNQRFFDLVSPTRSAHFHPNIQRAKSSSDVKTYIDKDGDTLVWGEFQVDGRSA
Description: as §1

[9] = test system: T9, Rep nickase domain of tomato yellow leaf curl virus
T9 sequence (Rep 1-136, printed without the tag): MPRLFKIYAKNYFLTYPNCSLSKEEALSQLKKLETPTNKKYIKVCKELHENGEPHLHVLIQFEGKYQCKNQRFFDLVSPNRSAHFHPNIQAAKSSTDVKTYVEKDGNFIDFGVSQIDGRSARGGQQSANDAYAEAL
Description: as §1

[10] = test system: T10, Rep nickase domain of wheat dwarf virus
T10 sequence (Rep 1-137, printed without the tag): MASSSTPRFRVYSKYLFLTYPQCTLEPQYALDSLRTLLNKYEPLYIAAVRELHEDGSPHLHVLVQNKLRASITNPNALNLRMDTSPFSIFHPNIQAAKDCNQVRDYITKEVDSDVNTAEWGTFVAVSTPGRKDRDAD
Description: as §1

Sequence | uncleaved DNA left (log2) [1] | uncleaved DNA left (log2) [2] | uncleaved DNA left (log2) [3] | uncleaved DNA left (log2) [4] | uncleaved DNA left (log2) [5] | uncleaved DNA left (log2) [6] | uncleaved DNA left (log2) [7] | uncleaved DNA left (log2) [8] | uncleaved DNA left (log2) [9] | uncleaved DNA left (log2) [10]
ACAGACT | -0.113 | -0.0108 | -0.256 | -1.92 | 0.0215 | -0.116 | -0.0205 | 0.00467 | -0.067 | -0.0882
CTGCATC | -0.0672 | 0.0411 | 0.0404 | -0.0724 | -0.0417 | -0.603 | 0.0378 | -0.0584 | -0.0636 | 0.00767
TAACCCT | -0.424 | -0.109 | -3.2 | -3.13 | -0.00259 | -1.73 | -1.58 | -0.816 | -0.13 | -2.15
CGTGAGT | 0.115 | 0.0619 | -0.054 | -0.517 | 0.0795 | -0.707 | -0.059 | 0.162 | 0.077 | 0.0626
TAGTCGC | 0.0355 | -0.0523 | -0.696 | -0.816 | 0.0429 | -1.06 | -2.38 | -0.0568 | 0.0228 | -0.036
CGGCCGT | 0.00654 | -0.00428 | -0.0766 | -0.126 | -0.0257 | -0.351 | 0.107 | -0.00894 | -0.0178 | -0.0047
TTTATCC | -0.0167 | 0.0347 | 0.176 | -0.0436 | 0.0194 | -0.229 | 0.0435 | -0.0854 | 0.0611 | 0.00652
CTACCGA | 0.00532 | -0.0853 | -0.327 | -1.24 | 0.0528 | -0.778 | -0.057 | -0.0584 | 0.041 | -0.0925
GATCTGA | -0.00051 | 0.0985 | 0.108 | 0.642 | 0.00324 | 1.26 | -0.0213 | 0.0147 | -0.0223 | -0.0509
GTGGTAC | -0.101 | 0.06 | 0.218 | 0.684 | -0.139 | 1.84 | 0.0136 | 0.066 | -0.0388 | -0.0236
TCTGACA | 0.0428 | 0.166 | 0.0329 | 0.0523 | 0.0181 | 0.53 | 0.0234 | 0.153 | 0.0068 | 0.0171
CAACGTA | -0.0561 | -0.119 | -0.389 | -2.12 | 0.00403 | -0.864 | -0.198 | -0.102 | -0.114 | -0.152
GCCAATC | 0.0183 | -0.000362 | -0.0668 | 0.339 | -0.093 | 0.0234 | 0.0902 | -0.013 | 0.154 | 0.00547
ACGTCTG | 0.0654 | 0.0192 | -0.0307 | 0.273 | 0.0649 | 0.441 | 0.107 | 0.0614 | 0.0751 | -0.0599
TATGGGC | 0.0354 | -0.00564 | 0.155 | 0.223 | 0.0225 | -0.244 | 0.103 | 0.0974 | 0.0283 | -0.13
